Assay results from the RNAGym collection of RNA variant scans (doi:10.7554/elife.90254).
The source gives no read counts; variants with many changes may rest on few reads.

B1: OR4K15 (parent)
chain: GUUAACGGUCAUAGGCCAUGGAAACUAGGAGCACCAUUUCGCUGCCAGUGAAGAAAUGAACAAAGAAAAUCUGGGCCAGGCAGGCAUCAAAAGAAAUAGUCUUGCGCUCAACCAGAAAGUCUGUAAUCAUUUUAAGGGUA

Variants of: B1
Assay: self-cleavage, relative activity (ratio to wild type); higher = more cleavage; in vitro, sequencing; the parent is a self-cleaving ribozyme

Variant | self-cleavage
GUUAACGGUCAUAGGCCAUGGAAACUAGGAGCACCAUUUCGCUGCCAGUGAAGAAAUGAACAAAGAAAAACAGGGCCAGGCAGGCAUCAAAAGAAAUAGUCUUGCGCUCAACCAGAAAGUCUGUAACCAUUUUAAGGGUA [U70A U72A U127C] | 0.14
GUUAACGGUCAUAGGCCAUGGAAACUAGGAGCACCAUUUCGCUGCCAGUGAAGAAAUGAACAAAGAAAAACUGGGCCAGGCAGGCAUCAAGAGAAAUAGUCUUGCGCUCAACCAGAUAGUCUGUGAUCAUUUUAAGGGUA [U70A A91G A117U A125G] | 0.14
GUUAACGGUCAUAGGCCAUGGAAACUAGGAGCACCAUUUCGCUGCCAGUGAAGAAAUGAACAAAGAAAACCUGGGCCAGGCAGGCAUCAAAAGAGAUAGUCUUGCGCUCAACCAGAAAGUCUGUAAUCAUUUUAAGGGUG [U70C A95G A140G] | 1.02
GUUAACGGUCAUAGGCCAUGGAAACUAGGAGCACCAUUUCGCUGCCAGUGAAGAAAUGAACAAAGAAAUUCUGGGCCAGGCAGGCAUCAAAAGAAAUAGUCUAGCGCUCAACCGGAAAGUCUGUAAUCAUUUUAAGGGUA [A69U U103A A114G] | 0.49
GUUAACGGUCAUAGGCCAUGGAAACUAGGAGCACCAUUUCGCUGCCAGUGAAGAAAUGAACAAAGAAAACCUGGGCCAGGCAGGCAUCAAAAGAAAUAGUCUUGCGCUCAACCAGAGAGUCCGUAAUCAUUUUAAGGGUA [U70C A117G U122C] | 0.36
GUUAACGGUCAUAGGCCAUGGAAACUAGGAGCACCAUUUCGCUGCCAGUGAAGAAAUGAACAAAGAAAACCUGGGCCAGGCAGGCAUCAAAAGAGAUAGCCUUGCGCUCAACCAGAAAGUCCGUAGUCAUGUUAAGGGUA [U70C A95G U100C U122C A126G U131G] | 1.16
GUUAACGGUCAUAGGCCAUGGAAACUAGGAGCACCAUUUCGCUGCCAGUGAAGAAAUGAACAAAGAAAACCUGGGCCUGGCAGGCAUCAAAAGAAAUAGUCUUGCGCUCAACCAGAGAGUCUGUAAUCAUUUUAAGGGUA [U70C A78U A117G] | 0.13
GUUAACGGUCAUAGGCCAUGGAAACUAGGAGCACCAUUUCGCUGCCAGUGAAGAAAUGAACAAAGAAAAGCUGGGCCAGGCGGGCAUCAAAAGAAAUAGUCUUGCGCUCAACCAGAAAGUCUGUAAUCAUUCUAAGGGUA [U70G A82G U132C] | 0.21
GUUAACGGUCAUAGGCCAUGGAAACUAGGAGCACCAUUUCGCUGCCAGUGAAGAAAUGAACAAAGAAAUUCAGGGCCAGGCAGGCAUCAAAAGAAAUAGUCUUGCGCUCAACCAGGAAGUCUGUAAUCAUUUUAAGGGUA [A69U U72A A116G] | 0.14
GUUAACGGUCAUAGGCCAUGGAAACUAGGAGCACCAUUUCGCUGCCAGUGAAGAAAUGAACAAAGAAAACCUGGGCCAGGCAGGCAUCAAAAGAAAUAGUCUUGCGCUCAACCUGAAAGUCUGUAAUCAUUUUAAGAGUA [U70C A114U G137A] | 0.01
GUUAACGGUCAUAGGCCAUGGAAACUAGGAGCACCAUUUCGCUGCCAGUGAAGAAAUGAACAAAGAAAACCUGGGCCAGGCAGGCAUCAAAAGAAAUAGUCUUGCGCUCACCCAGAAAGUCUGUAAUCACUUUAAGGGUA [U70C A111C U130C] | 0.01
GUUAACGGUCAUAGGCCAUGGAAACUAGGAGCACCAUUUCGCUGCCAGUGAAGAAAUGAACAAAGAAAACCUGGGCCAGGCAGGCGUCAAAAGGAAUAGUCUUGCGCUCAACCAGAAAGUCUGUAAUCAUUUUAAGGGUA [U70C A86G A94G] | 0.31
GUUAACGGUCAUAGGCCAUGGAAACUAGGAGCACCAUUUCGCUGCCAGUGAAGAAAUGAACAAAGAAAACCUGGGCCAGGCAGGCACCAAAAGAAAUAGUCUUGCGCACAACCAGAAAGUCUGUAAUCAUUCUAAGGGUA [U70C U87C U108A U132C] | 0.02
GUUAACGGUCAUAGGCCAUGGAAACUAGGAGCACCAUUUCGCUGCCAGUGAAGAAAUGAACAAAGAAAAGCUGGGCCAGGCGGGCAUCAAAAGAAAUAGUCUCGCGCUCAACCAGAAAGCCUGUAAUCAUUUUAAGGGUA [U70G A82G U103C U120C] | 1.47
GUUAACGGUCAUAGGCCAUGGAAACUAGGAGCACCAUUUCGCUGCCAGUGAAGAAAUGAACAAAGAAAACCUGGGCCAGGCAGGCAUCAGAAGAAAUAGUCUUGCGCCCAACCAGAAAGUCUGUAAUCAUUUUAAGGGUA [U70C A90G U108C] | 0.02
GUUAACGGUCAUAGGCCAUGGAAACUAGGAGCACCAUUUCGCUGCCAGUGAAGAAAUGAACAAAGAAAACCUGGGCCAGGCAGGCAUCAAAAGAAAUAGUCUUGCGCUCAACCAGAAAGUCUGUAUUCAUUCUAAGGGUA [U70C A126U U132C] | 0.77
GUUAACGGUCAUAGGCCAUGGAAACUAGGAGCACCAUUUCGCUGCCAGUGAAGAAAUGAACAAAGAAAACCUGGGCCAGGCUGGCAUCAAAAGAAAUAGUCUUGCGCUCAGCCGGAAAGUCCGUAAUCAUUUUAAGGGUA [U70C A82U A111G A114G U122C] | 0.01
GUUAACGGUCAUAGGCCAUGGAAACUAGGAGCACCAUUUCGCUGCCAGUGAAGAAAUGAACAAAGAAAUUCUGGGCCAGGCAGGCAUCAAAAGAAAUAGUCUUGCGCUCAACCAGAAGGUCUGUAAUCAUUUUAAGAGUA [A69U A118G G137A] | 1.24
GUUAACGGUCAUAGGCCAUGGAAACUAGGAGCACCAUUUCGCUGCCAGUGAAGAAAUGAACAAAGAAAACCUGGGCCAGGCAGGCAUCAAAAGAGUUAGUCUUGCGCUCAACCAGAAAGUCUGUAAUCAUUUUAAGGGUA [U70C A95G A96U] | 1.34
GUUAACGGUCAUAGGCCAUGGAAACUAGGAGCACCAUUUCGCUGCCAGUGAAGAAAUGAACAAAGAAAACCUGGGCCAGACAGGCAUCAAAAGAAAUAGUCUUGCGCUCAACCUGUAAGUCUGUAAUCAUUUUAUGGGUA [U70C G80A A114U A116U A135U] | 0
GUUAACGGUCAUAGGCCAUGGAAACUAGGAGCACCAUUUCGCUGCCAGUGAAGAAAUGAACAAAGAAAACUUGGGCCAGGCAGGCAUCAAAAGAAAUAGUCUUGCGCUCAACCAGAAAGUCUGCAAUCAUUUUAAGGGUA [U70C C71U U124C] | 0.1
